From patent publication US6800434B2, “Peptides as NS3-serine protease inhibitors of hepatitis C virus” (priority 2000, dated 2004)
pKi: −log10 of the molar value. Starred links: 1 amine or outer side, 2 acyl side, 3 side chain; linkers in the order of their positions; H or OH if unused. Non-standard residues stand in square brackets, D forms with d. Residues, ends and D or L forms follow the SMILES beside them. ξ: configuration not given here. *: point of attachment. Dip = N[C@H](C(=O)O)C(c1ccccc1)c1ccccc1; X1 = CCC[C@H](N[*:1])C(=O)C(=O)[*:2]; X3 = CCCC(N[*:1])C(=O)C(=O)[*:2]; Ile(3ξ) = CCC(C)[C@H](N)C(=O)O; Thr(3ξ) = CC(O)[C@H](N)C(=O)O; Chg = N[C@H](C(=O)O)C1CCCCC1; Phg = N[C@H](C(=O)O)c1ccccc1; Tle = CC(C)(C)[C@H](N)C(=O)O; Carboxymethyl = O=C(O)C*; Nle = CCCC[C@H](N)C(=O)O; Aze = O=C(O)[C@@H]1CCN1

Molecular target: Recombinant heterodimeric HCV NS3/NS4A protease (strain 1a) (Hepatitis C virus genotype 1a, UniProt P27958)
Experiment: biochemical
Settings: Ki* Range

Compound	pKi
CCC[C@H](NC(=O)[C@@H]1CCCN1C(=O)[C@@H](NC(=O)[C@@H](NC(=O)[C@H](CCC(=O)O)NC(=O)[C@H](CCC(=O)O)NC(C)=O)C(C)C)C1CCCCC1)C(=O)C(=O)NCC(=O)O [Ac-EEV-G(Chx)-P-nV-(CO)-G-OH] (Ac-EEV[Chg]P[X1]G-OH)	7.00 to 9.00
CCC[C@H](NC(=O)[C@@H]1CCCN1C(=O)[C@@H](NC(=O)[C@@H](NC(=O)[C@H](CCC(=O)O)NC(=O)[C@H](CCC(=O)O)NC(C)=O)C(C)C)c1ccccc1)C(=O)C(=O)NCC(=O)O [Ac-EEV-G(Ph)-P-nV-(CO)-G-OH] (Ac-EEV[Phg]P[X1]G-OH)	6.00 to 7.00
CCCC[C@H](NC(=O)[C@@H](NC(=O)[C@H](CCC(=O)O)NC(=O)[C@H](CCC(=O)O)NC(C)=O)C(C)C)C(=O)N1CCC[C@H]1C(=O)N[C@@H](CCC)C(=O)C(=O)NCC(=O)O [Ac-EEV-nL-P-nV-(CO)-G-OH] (Ac-EEV[Nle]P[X1]G-OH)	6.00 to 7.00
CCC[C@H](NC(=O)[C@@H]1CCCN1C(=O)[C@H](CS)NC(=O)[C@@H](NC(=O)[C@H](CCC(=O)O)NC(=O)[C@H](CCC(=O)O)NC(C)=O)C(C)C)C(=O)C(=O)NCC(=O)O [Ac-EEVCP-nV-(CO)-G-OH] (Ac-EEVCP[X1]G-OH)	6.00 to 7.00
CCC[C@H](NC(=O)[C@@H]1CCCN1C(=O)[C@@H](NC(=O)[C@@H](NC(=O)[C@H](CCC(=O)O)NC(=O)[C@H](CCC(=O)O)NC(C)=O)C(C)C)C(c1ccccc1)c1ccccc1)C(=O)C(=O)NCC(=O)O [Ac-EEVDifP-nV-(CO)-G-OH] (Ac-EEV[Dip]P[X1]G-OH)	6.00 to 7.00
CCC[C@H](NC(=O)[C@@H]1CCCN1C(=O)[C@H](Cc1ccccc1)NC(=O)[C@@H](NC(=O)[C@H](CCC(=O)O)NC(=O)[C@H](CCC(=O)O)NC(C)=O)C(C)C)C(=O)C(=O)NCC(=O)O [Ac-EEVFP-nV-(CO)-G-OH] (Ac-EEVFP[X1]G-OH)	6.00 to 7.00
CCC[C@H](NC(=O)[C@@H]1CCCN1C(=O)[C@@H](NC(=O)[C@@H](NC(=O)[C@H](CCC(=O)O)NC(=O)[C@H](CCC(=O)O)NC(C)=O)C(C)C)C(C)(C)C)C(=O)C(=O)NCC(=O)O [Ac-EEVG(t-Bu)P-nV-(CO)-G-OH] (Ac-EEV[Tle]P[X1]G-OH)	7.00 to 9.00
CCC[C@H](NC(=O)[C@@H]1CCCN1C(=O)[C@@H](NC(=O)[C@@H](NC(=O)[C@H](CCC(=O)O)NC(=O)[C@H](CCC(=O)O)NC(C)=O)C(C)C)C(C)CC)C(=O)C(=O)NCC(=O)O (stereo partly drawn) [Ac-EEVIP-nV-(CO)-G-OH] (Ac-EEV[Ile(3ξ)]P[X1]G-OH)	7.00 to 9.00
CCCC(NC(=O)[C@@H]1CCCN1C(=O)[C@H](CC(C)C)NC(=O)[C@@H](NC(=O)[C@H](CCC(=O)O)NC(=O)[C@H](CCC(=O)O)NC(C)=O)C(C)C)C(=O)C(=O)NCC(=O)O (stereo partly drawn) [Ac-EEVLP-nV-(CO)-G-OH] (Ac-EEVLP[X3]G-OH)	6.00 to 7.00
CCC[C@H](NC(=O)[C@@H]1CCCN1C(=O)[C@H](CCC(N)=O)NC(=O)[C@@H](NC(=O)[C@H](CCC(=O)O)NC(=O)[C@H](CCC(=O)O)NC(C)=O)C(C)C)C(=O)C(=O)NCC(=O)O [Ac-EEVQP-nV-(CO)-G-OH] (Ac-EEVQP[X1]G-OH)	5.00 to 6.00
CCC[C@H](NC(=O)[C@@H]1CCCN1C(=O)[C@H](CO)NC(=O)[C@@H](NC(=O)[C@H](CCC(=O)O)NC(=O)[C@H](CCC(=O)O)NC(C)=O)C(C)C)C(=O)C(=O)NCC(=O)O [Ac-EEVSP-nV-(CO)-G-OH] (Ac-EEVSP[X1]G-OH)	5.00 to 6.00
CCC[C@H](NC(=O)[C@@H]1CCCN1C(=O)[C@@H](NC(=O)[C@@H](NC(=O)[C@H](CCC(=O)O)NC(=O)[C@H](CCC(=O)O)NC(C)=O)C(C)C)C(C)O)C(=O)C(=O)NCC(=O)O (stereo partly drawn) [Ac-EEVTP-nV-(CO)-G-OH] (Ac-EEV[Thr(3ξ)]P[X1]G-OH)	5.00 to 6.00
CCC[C@H](NC(=O)[C@@H]1CCN1C(=O)[C@@H](NC(=O)[C@@H](NC(=O)[C@H](CCC(=O)O)NC(=O)[C@H](CCC(=O)O)NC(C)=O)C(C)C)C(C)C)C(=O)C(=O)NCC(=O)O [Ac-EEVV-Aze-nV-(CO)-G-OH] (Ac-EEVV[Aze][X1]G-OH)	7.00 to 9.00
CCC[C@H](NC(=O)[C@H](CSCC(=O)O)NC(=O)[C@@H](NC(=O)[C@@H](NC(=O)[C@H](CCC(=O)O)NC(=O)[C@H](CCC(=O)O)NC(C)=O)C(C)C)C(C)C)C(=O)C(=O)NCC(=O)O [Ac-EEVV-C(2-AcOH)-nV-(CO)-G-OH] (Ac-EEVVC(Carboxymethyl)[X1]G-OH)	7.00 to 9.00
CCC[C@H](NC(=O)[C@H](CSC)NC(=O)[C@@H](NC(=O)[C@@H](NC(=O)[C@H](CCC(=O)O)NC(=O)[C@H](CCC(=O)O)NC(C)=O)C(C)C)C(C)C)C(=O)C(=O)NCC(=O)O [Ac-EEVV-C(Me)-nV-(CO)-G-OH] (Ac-EEVVC(Me)[X1]G-OH)	7.00 to 9.00
